According to PubChem BioAssay AID504339 (National Center for Advancing Translational Sciences (NCATS), 2011):
Values joined by “and” are separate entries in the source; they are usually repeats but may differ in a detail not shown here. Equal values may be shown once. Among all 390,000 compounds or so, about 17,000 (4.4%) were called active. The inconclusive results got no clear call from the source; some entries with a clear call stand among them for comparison. The call rests on the fitted dose curve; in most records, active means well fitted inhibition curve with a large enough effect; inconclusive means small, poorly fitted or top-dose-only effect; inactive means no such curve, though single readings can be large or run the other way. A potency beside an inconclusive call is a rough fit, not a confirmed value.

Each compound was assayed against Lysine-specific demethylase 4A (Homo sapiens) (UniProt O75164) (assay: qHTS Assay for Inhibitors of JMJD2A-Tudor Domain). Conditions: AlphaScreen JMJD2A-Tudor / H3K4me3 peptide binding; activity change, negative = inhibition: at 114 µM (top of the series).
Sequence of UniProt O75164 (O75164 whole entry, looked up, the tested form may be a part): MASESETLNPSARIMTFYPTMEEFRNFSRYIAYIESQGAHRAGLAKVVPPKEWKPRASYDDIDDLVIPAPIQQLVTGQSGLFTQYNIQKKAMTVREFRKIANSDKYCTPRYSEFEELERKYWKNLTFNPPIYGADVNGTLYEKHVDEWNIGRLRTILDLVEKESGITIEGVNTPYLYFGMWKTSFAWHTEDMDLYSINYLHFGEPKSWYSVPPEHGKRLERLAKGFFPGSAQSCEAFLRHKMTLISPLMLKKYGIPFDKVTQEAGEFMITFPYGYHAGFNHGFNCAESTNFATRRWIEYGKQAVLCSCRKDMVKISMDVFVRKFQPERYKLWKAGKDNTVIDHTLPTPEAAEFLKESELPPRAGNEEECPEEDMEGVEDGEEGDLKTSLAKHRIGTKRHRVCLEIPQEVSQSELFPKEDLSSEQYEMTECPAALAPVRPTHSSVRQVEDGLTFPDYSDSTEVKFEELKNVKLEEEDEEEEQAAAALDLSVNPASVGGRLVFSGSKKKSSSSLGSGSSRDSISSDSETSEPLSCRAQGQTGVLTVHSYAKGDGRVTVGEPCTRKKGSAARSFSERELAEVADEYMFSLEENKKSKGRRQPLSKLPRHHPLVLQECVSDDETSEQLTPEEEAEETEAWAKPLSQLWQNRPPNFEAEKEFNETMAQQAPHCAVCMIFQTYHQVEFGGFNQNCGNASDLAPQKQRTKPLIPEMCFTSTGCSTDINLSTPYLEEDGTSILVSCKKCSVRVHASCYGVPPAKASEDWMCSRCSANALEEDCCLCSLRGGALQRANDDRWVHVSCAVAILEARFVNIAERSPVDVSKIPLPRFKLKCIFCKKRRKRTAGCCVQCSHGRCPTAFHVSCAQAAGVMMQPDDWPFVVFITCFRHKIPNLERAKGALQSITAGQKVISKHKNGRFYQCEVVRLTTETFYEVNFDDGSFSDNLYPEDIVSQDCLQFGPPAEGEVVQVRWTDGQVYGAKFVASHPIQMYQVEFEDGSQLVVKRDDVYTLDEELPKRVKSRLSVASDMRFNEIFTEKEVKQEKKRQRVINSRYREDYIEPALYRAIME
Further: nearly all actives have a fitted effect of over 50% in size.
On the % scale 0 is the no-effect control and ±100 the full control effect; potency means the concentration at half of the fitted maximal effect; tags describe the fitted curve by direction and shape.

Row | SMILES | activity change, negative = inhibition | Potency
1 | Cc1cccc(NS(=O)(=O)c2cccs2)c1 | inactive: -27.6% | –
2 | Cc1noc(C)c1COc1ccc(C(=O)OCC(=O)N2CC3(C)CC2CC(C)(C)C3)cc1 (configuration not stated) | inactive: -19.2% | –
3 | O=[N+]([O-])c1cc(C(F)(F)F)ccc1NCCOc1ccccc1 | – | inconclusive: 50.1 µM [inhibitor, partial curve]
4 | C=CCn1c(CNS(=O)(=O)c2ccc(F)cc2)n[nH]c1=S | – | active: 12.6 µM
5 | O=C(O)CSCC(=O)Nc1ccccc1SCCS(=O)(=O)c1ccc(Cl)cc1 | inactive: -13.4% | –
6 | C=CCn1c2ccccc2c2n[nH]c(=S)nc21 | inactive: -31.6% | –
7 | CN1CCN(C2Cc3cc(Cl)ccc3Sc3cc(F)ccc32)CC1 (configuration not stated) | – | inconclusive: 56.2 µM [inhibitor, partial curve]
8 | Cc1cc(NC(=O)CN2C(=O)NC(C)(c3ccccc3)C2=O)no1 (configuration not stated) | inactive: -10.4% | –
9 | CC(=O)OCC(=O)Nc1ccc(N=Nc2ccccc2)cc1 | – | inconclusive: 7.94 µM [inhibitor, partial curve]
10 | Cc1nc2c(C(=O)NCCc3ccc(Cl)cc3)c[nH]n2c(=O)c1Cc1ccc(Cl)cc1 | – | inconclusive: 56.2 µM [inhibitor, partial curve]
11 | COc1ccccc1C(=O)Nc1c(C(=O)N(C)Cc2ccccc2)sc2nc(C)c(Cl)c(C)c12 | inactive: -16.8% | –
12 | CCOC(=O)CNC(=O)Cc1ccc(Cl)cc1 | inactive: -0.347% | –
13 | O=[N+]([O-])c1ccc(-c2c(-c3ccccc3)ncc3cc(F)ccc23)cc1 | – | inconclusive: 22.4 µM [inhibitor, full curve]
14 | Cc1cccc(C)c1-n1ncc(C(=O)Nc2ccc3c(c2)OCO3)c1C1CCN(C(=O)OC(C)(C)C)CC1 | – | inconclusive: 25.1 µM [inhibitor, full curve, poor fit]
15 | Cc1cc(-c2ccccc2)nc2cc(C(=O)NCc3ccco3)nn12 | – | inconclusive: 79.4 µM [inhibitor, partial curve]
16 | Cc1[nH]c2c([N+](=O)[O-])cccc2c1C | – | inconclusive: 14.1 µM [inhibitor, partial curve]
17 | CC1CN(Cc2csc(-c3ccc(Cl)cc3)n2)CC(C)O1 (configuration not stated) | – | active: 10 µM
18 | OC(COc1c(F)cc(Br)cc1F)CN1CCN(c2ccc(F)cc2)CC1 (configuration not stated) | – | inconclusive: 79.4 µM [inhibitor, partial curve]
19 | Cn1nc(C(C)(C)C)cc1NC(=O)Nc1ccc(F)cc1F | – | inconclusive: 79.4 µM [inhibitor, single point]
20 | O=C(NO)c1ccc(C(=O)N(C2CCCCC2)C2CCCCC2)cc1 | – | inconclusive: 89.1 µM [inhibitor, single point]
21 | CCCCCCSc1cc(-c2nc3ccc(C)cn3c2NCCCC)ccc1OC | – | inconclusive: 50.1 µM [inhibitor, partial curve]
22 | Cc1ccc(/C=C/C(=O)OCC(=O)NC(=O)NCc2ccco2)cc1 | – | inconclusive: 10 µM [inhibitor, partial curve]
23 | COc1cc(CCCN2CCNC[C@H]2Cc2ccc(O)cc2)cc(OC)c1OC | – | inconclusive: 100 µM [inhibitor, partial curve]
24 | CCN(CC)CCC(c1ccc(N(C)C)cc1)c1c(OC)cc(OC)c2c(C)cc(=O)oc12 (configuration not stated) | – | active: 35.5 µM

Row | SMILES | activity change, negative = inhibition | Potency
25 | COc1ccccc1CCNC(=O)c1ccc2c(c1)c(C)c(C)n2Cc1ccc(Cl)cc1 | – | inconclusive: 15.8 µM [inhibitor, full curve, poor fit]
26 | O=C1C2ON(c3ccc(Cl)cc3)C(c3ccco3)C2C(=O)N1c1ccccc1 (configuration not stated) | – | inconclusive: 89.1 µM [inhibitor, partial curve]
27 | CCCN(N=Nc1cccc([N+](=O)[O-])c1)c1cccc([N+](=O)[O-])c1 | – | inconclusive: 6.31 µM [inhibitor, full curve]
28 | Cc1cccc(-n2c(-c3csc(C)c3C)n[nH]c2=S)c1 | – | active: 22.4 µM
29 | COc1cccc(C(=O)OCC(=O)c2c(N)n(C)c(=O)n(C)c2=O)c1 | inactive: -6.86% | –
30 | COc1ccc(OCC(=O)NC(=S)N2CCCc3ccccc32)cc1 | – | active: 56.2 µM
31 | COC(=O)c1ccc(-c2ccc(/C=N/N3C(=O)C4C5C=CC(CC5)C4C3=O)o2)cc1 (configuration not stated) | inactive: -4.04% | –
32 | COc1cc(O)c(C(CC(=O)N2CCCCC2)c2ccc(N(C)C)cc2)c(OC)c1 (configuration not stated) | – | active: 39.8 µM and active: 50.1 µM
33 | COc1cccc(CNC(=O)CN(C)S(=O)(=O)c2ccc3[nH]c4c(c3c2)CCCC4)c1 | – | inconclusive: 44.7 µM [inhibitor, partial curve]
34 | Cc1c(C)n(C(=O)CSc2nc3ccccc3[nH]2)c2ccccc12 | – | inconclusive: 70.8 µM [inhibitor, partial curve]
35 | CCCCCCCSc1nnc(-c2ccccc2N)c(=O)[nH]1 | inactive: -10.8% | –
36 | COc1ccc(CNCCCC(=O)Nc2c(Cl)ccc(C)c2Cl)cc1OC | – | active: 0.794 µM
37 | O=C(COc1ccc(Br)cc1)NNC(=O)Cc1ccc(S(=O)(=O)N2CCOCC2)s1 | inactive: -8.17% | –
38 | CC(/C=C1\N=C(SCc2ccccc2)SC1=O)=C\c1ccccc1 | – | inconclusive: 5.01 µM [inhibitor, full curve, poor fit]
39 | CN(C[C@H](Cc1ccccc1)N(C[C@H](Cc1cccc2ccccc12)N(CCc1ccccc1)N=O)N=O)N=O | – | inconclusive: 50.1 µM [inhibitor, partial curve]
40 | Cc1noc(C)c1C(=O)N1CCCC(C(=O)c2cccc(OC(C)C)c2)C1 (configuration not stated) | inactive: -4.11% | –
41 | COc1ccc(C(=O)O)cc1NC(=S)NC(=O)C(c1ccccc1)c1ccccc1 | inactive: -16% | –
42 | O=C(Nc1ncn[nH]1)c1cccc(F)c1 | – | inconclusive: 70.8 µM [inhibitor, single point]
43 | N#C/C(=N/Nc1ccc(S(=O)(=O)N2CCOCC2)cc1)C(N)=O | inactive: -35.3% | –
44 | CC(C)CC1N=C2c3ccccc3N=C(SCC(=O)NCCc3ccc(Cl)cc3)N2C1=O (configuration not stated) | inactive: 0.662% | –
45 | c1ccc(-c2cncn2-c2ccccc2)cc1 | – | inconclusive: 50.1 µM [inhibitor, partial curve]
46 | O=C(c1cc2ccccc2cc1O)N1CCN(c2ccccc2O)CC1 | – | inconclusive: 44.7 µM [inhibitor, partial curve]
47 | CCOC(=O)c1ccc(NS(=O)C23CC4CC(CC(C4)C2)C3)cc1 (configuration not stated) | inactive: -28.5% | –
